Results on 74 sequences are retold here after article PMC5892938.

The other results are listed elsewhere or left out. At the low end of the ranking the order means little.

In this assay the target is GST-SBP-SLBP (stem-loop binding protein) (UniProt Q14493). The assay is described as follows: targeted RNA Bind-n-Seq.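 Also: DESeq read counts versus GST-SBP nonspecific binding control pulldown.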 To be noted: RBNS binding buffer: 25 mM Tris pH 7.5, 150 mM KCl, 3 mM MgCl2, 0.1% Tween, 0.5 mg/mL BSA, 1 mM DTT; 27 nM protein, 750 pM RNA pool; temperature not stated; high values mean tight binding.
For “GGUCACGUCUCAAUCAACUCUCAAGAGGGGGGGAAAACCCCUUUGCCCUCAUAAUCAACAGCUCGCAGUCAAG”, the binding signal (log2 fold change) worked out at 0.148.

With “GGUCACGUCUCAAUCAACUCAUCCUCAGGAGUUUGCUCCUGCUAUUUCAACAGCUCGCAGUCAAG”, the binding signal (log2 fold change) turned out to be 0.0485.

As to “GGUCACGUCUCAAUCAACUCAUUCCCAGGAGUUUUCUCCUGUAUUUUCAACAGCUCGCAGUCAAG”, the binding signal (log2 fold change) was 0.0436. “GGUCACGUCUCAAUCAACUCUAUUCCCAGGGAAAGCCCUGGCAAACUCAACAGCUCGCAGUCAAG”: the binding signal (log2 fold change) was 0.0865. For the sequence “GGUCACGUCUCAAUCAACUCUAAAGAGGGGGGGAAAACCCCUUUGCCCUCGUAUUCAACAGCUCGCAGUCAAG”, the binding signal (log2 fold change) is -0.0239. The same measure for “GGUCACGUCUCAAUCAACUCCAAAGAGGGGGGGAAAACCCCUUUGCCCUCACAUUCAACAGCUCGCAGUCAAG”: -0.236. For “GGUCACGUCUCAAUCAACUCUUCCUCCAGGGAAAGCCCUGGUAAAUUCAACAGCUCGCAGUCAAG”, the binding signal (log2 fold change) is -0.0366. Regarding “GGUCACGUCUCAAUCAACUCAUUCCCAGGAGUUUUCUCCUGCAAAGUCAACAGCUCGCAGUCAAG”, the binding signal (log2 fold change) is 0.264.

With “GGUCACGUCUCAAUCAACUCAUUCUCAGGAGUUUUCUCCUGCAUACUCAACAGCUCGCAGUCAAG”, the binding signal (log2 fold change) is 0.26.

For “GGUCACGUCUCAAUCAACUCAAUUCCCAGGGAAAUCCCUGGCAAAUUCAACAGCUCGCAGUCAAG”, the binding signal (log2 fold change) was 0.066.

“GGUCACGUCUCAAUCAACUCAAGUCCAGGAGUUUUCUCCUGUUUUUUCAACAGCUCGCAGUCAAG”: the binding signal (log2 fold change) was 0.0629. Turning to “GGUCACGUCUCAAUCAACUCUAUUCCCAGGGAAAACCCUGGUAUUCUCAACAGCUCGCAGUCAAG”, the binding signal (log2 fold change) is -0.00175. Turning to “GGUCACGUCUCAAUCAACUCUAUAGAGGGGGGGAAAACCCCUUUACCCUCAUUAUCAACAGCUCGCAGUCAAG”, the binding signal (log2 fold change) was found to be 0.142.

On to “GGUCACGUCUCAAUCAACUCUUCGUCAGGAGUUUACUCCUGUUAAUUCAACAGCUCGCAGUCAAG”, for which the binding signal (log2 fold change) is -0.073. In the case of “GGUCACGUCUCAAUCAACUCAAUCCCCAGGGAAACCCCUGGCUUUCUCAACAGCUCGCAGUCAAG”, the binding signal (log2 fold change) was -0.216. “GGUCACGUCUCAAUCAACUCUUUAGAGGGGGGGAAAACCCCUUUACCCUCGUUUUCAACAGCUCGCAGUCAAG”: the binding signal (log2 fold change) is -0.0266. For “GGUCACGUCUCAAUCAACUCUAUGUCCAGGGAAAGCCCUGGUUUUCUCAACAGCUCGCAGUCAAG”, the binding signal (log2 fold change) is -0.0931. For “GGUCACGUCUCAAUCAACUCUUUCUCCAGGGAAAACCCUGGUAAUGUCAACAGCUCGCAGUCAAG”, the binding signal (log2 fold change) is 0.0136. For “GGUCACGUCUCAAUCAACUCAUCUCCCAGGGAAAACCCUGGCAUAUUCAACAGCUCGCAGUCAAG”, the binding signal (log2 fold change) stood at 0.0576.

On to “GGUCACGUCUCAAUCAACUCUAUCUCCAGGGAAAACCCUGGUUAUCUCAACAGCUCGCAGUCAAG”, for which the binding signal (log2 fold change) amounted to 0.238. For “GGUCACGUCUCAAUCAACUCAAUCUCAGGAGUUUGCUCCUGUAUUCUCAACAGCUCGCAGUCAAG”, the binding signal (log2 fold change) worked out at 0.276. As to “GGUCACGUCUCAAUCAACUCAACUUCCAGGGAAAGCCCUGGCUUUCUCAACAGCUCGCAGUCAAG”, the binding signal (log2 fold change) is -0.0445.

For “GGUCACGUCUCAAUCAACUCUAUUUCAGGAGUUUACUCCUGUAUUUUCAACAGCUCGCAGUCAAG”, the binding signal (log2 fold change) was -0.0868.

As for “GGUCACGUCUCAAUCAACUCAUCUUCAGGAGUUUUCUCCUGUUAACUCAACAGCUCGCAGUCAAG”, the binding signal (log2 fold change) is -0.047.

Regarding “GGUCACGUCUCAAUCAACUCAUCUCCAGGAGUUUUCUCCUGUAAUUUCAACAGCUCGCAGUCAAG”, the binding signal (log2 fold change) was 0.192. As to “GGUCACGUCUCAAUCAACUCCACAGAGGGGGGGAAAACCCCUUUACCCUCACAUUCAACAGCUCGCAGUCAAG”, the binding signal (log2 fold change) was -0.0597. The same measure for “GGUCACGUCUCAAUCAACUCAACGGAGGGGGGGAAAACCCCUUUACCCUCAGAAUCAACAGCUCGCAGUCAAG”: 0.197; for “GGUCACGUCUCAAUCAACUCCUAAGAGGGGGGGAAAACCCCUUUGCCCUCAAUCUCAACAGCUCGCAGUCAAG”: -0.411; for “GGUCACGUCUCAAUCAACUCUAUGUCAGGAGUUUUCUCCUGUAAAUUCAACAGCUCGCAGUCAAG”: -0.175. As for “GGUCACGUCUCAAUCAACUCUAUUCCCAGGGAAACCCCUGGCUUUUUCAACAGCUCGCAGUCAAG”, the binding signal (log2 fold change) worked out at 0.0703. Regarding “GGUCACGUCUCAAUCAACUCAUGUCCAGGAGUUUUCUCCUGUUUUUUCAACAGCUCGCAGUCAAG”, the binding signal (log2 fold change) came to 0.127. To “GGUCACGUCUCAAUCAACUCUUCCUCCAGGGAAAGCCCUGGCAAUGUCAACAGCUCGCAGUCAAG” belongs 0.09; to “GGUCACGUCUCAAUCAACUCAACUUCAGGAGUUUGCUCCUGUUAUUUCAACAGCUCGCAGUCAAG”, -0.0913. As for “GGUCACGUCUCAAUCAACUCAUCGUCAGGAGUUUGCUCCUGCUUUCUCAACAGCUCGCAGUCAAG”, the binding signal (log2 fold change) was 0.113. For the sequence “GGUCACGUCUCAAUCAACUCAACUUCAGGAGUUUUCUCCUGUAAUUUCAACAGCUCGCAGUCAAG”, the binding signal (log2 fold change) is 0.0364. As to “GGUCACGUCUCAAUCAACUCAUCCCCAGGAGUUUUCUCCUGUAAAGUCAACAGCUCGCAGUCAAG”, the binding signal (log2 fold change) was -0.0193.

Consider “GGUCACGUCUCAAUCAACUCAUCCUCAGGAGUUUACUCCUGCAAUCUCAACAGCUCGCAGUCAAG”, for which the binding signal (log2 fold change) stood at 0.0951. On to “GGUCACGUCUCAAUCAACUCAUUCCCCAGGGAAAACCCUGGCUUUUUCAACAGCUCGCAGUCAAG”, for which the binding signal (log2 fold change) was found to be 0.0267. The same measure for “GGUCACGUCUCAAUCAACUCUACUCCCAGGGAAAACCCUGGCUAUUUCAACAGCUCGCAGUCAAG”: -0.137; for “GGUCACGUCUCAAUCAACUCAUCGGCCAGGGAAACCCCUGGGAAUCUCAACAGCUCGCAGUCAAG”: -0.174.

Consider “GGUCACGUCUCAAUCAACUCAUCUUCCAGGGAAACCCCUGGUAAUCUCAACAGCUCGCAGUCAAG”, for which the binding signal (log2 fold change) was 0.198. To “GGUCACGUCUCAAUCAACUCUAUUCCCAGGGAAAGCCCUGGCUUAUUCAACAGCUCGCAGUCAAG” belongs 0.178; to “GGUCACGUCUCAAUCAACUCUUCGCCAGGAGUUUUCUCCUGCUAUUUCAACAGCUCGCAGUCAAG”, 0.0485. In the case of “GGUCACGUCUCAAUCAACUCUAUCCCCAGGGAAAGCCCUGGCAUAUUCAACAGCUCGCAGUCAAG”, the binding signal (log2 fold change) is -0.0964. As for “GGUCACGUCUCAAUCAACUCUUUCCCAGGAGUUUUCUCCUGCUAUGUCAACAGCUCGCAGUCAAG”, the binding signal (log2 fold change) is 0.0645.

As to “GGUCACGUCUCAAUCAACUCUAUAGAGGGGGGGAAAACCCCUUUGCCCUCACCGUCAACAGCUCGCAGUCAAG”, the binding signal (log2 fold change) was -0.265. As for “GGUCACGUCUCAAUCAACUCUUCCUCCAGGGAAAACCCUGGCUUUUUCAACAGCUCGCAGUCAAG”, the binding signal (log2 fold change) amounted to 0.185.

As for “GGUCACGUCUCAAUCAACUCAAUUUCAGGAGUUUCCUCCUGUUUAUUCAACAGCUCGCAGUCAAG”, the binding signal (log2 fold change) is -0.0395. The same measure for “GGUCACGUCUCAAUCAACUCAUUCCCAGGAGUUUACUCCUGCAAUCUCAACAGCUCGCAGUCAAG”: 0.00852; for “GGUCACGUCUCAAUCAACUCUACUUCCAGGGAAACCCCUGGUUUAUUCAACAGCUCGCAGUCAAG”: 0.162; for “GGUCACGUCUCAAUCAACUCAUUCUCCAGGGAAAACCCUGGCAAUUUCAACAGCUCGCAGUCAAG”: -0.119. The same measure for “GGUCACGUCUCAAUCAACUCUCAGGAGGGGGGGAAAACCCCUUUACCCUCACCAUCAACAGCUCGCAGUCAAG”: -0.0507; for “GGUCACGUCUCAAUCAACUCAUCUCCAGGAGUUUCCUCCUGCAUAUUCAACAGCUCGCAGUCAAG”: -0.107.

In the case of “GGUCACGUCUCAAUCAACUCCAACGAGGGGGGGAAAACCCCUUUACCCUCAUUUUCAACAGCUCGCAGUCAAG”, the binding signal (log2 fold change) was -0.395. Take “GGUCACGUCUCAAUCAACUCUACUCCCAGGGAAAGCCCUGGCAAUCUCAACAGCUCGCAGUCAAG”: the binding signal (log2 fold change) was -0.277. Take “GGUCACGUCUCAAUCAACUCAUUUCCCAGGGAAAACCCUGGUUUUCUCAACAGCUCGCAGUCAAG”: the binding signal (log2 fold change) was determined as 0.244. On to “GGUCACGUCUCAAUCAACUCCCCAGAGGGGGGGAAAACCCCUUUACCCUCAUCAUCAACAGCUCGCAGUCAAG”, for which the binding signal (log2 fold change) was -0.284. Regarding “GGUCACGUCUCAAUCAACUCUAGUCCAGGAGUUUUCUCCUGUUAAUUCAACAGCUCGCAGUCAAG”, the binding signal (log2 fold change) came to 0.331. To “GGUCACGUCUCAAUCAACUCUUCUUCAGGAGUUUCCUCCUGCUAUCUCAACAGCUCGCAGUCAAG” belongs -0.0214; to “GGUCACGUCUCAAUCAACUCUACUCCCAGGGAAACCCCUGGUAAAUUCAACAGCUCGCAGUCAAG”, -0.11; to “GGUCACGUCUCAAUCAACUCAAGUCCAGGAGUUUGCUCCUGCUAUUUCAACAGCUCGCAGUCAAG”, -0.0307. For “GGUCACGUCUCAAUCAACUCAUCUUCAGGAGUUUACUCCUGUAUACUCAACAGCUCGCAGUCAAG”, the binding signal (log2 fold change) was -0.2. To “GGUCACGUCUCAAUCAACUCUUUCCCCAGGGAAAUCCCUGGUUUUUUCAACAGCUCGCAGUCAAG” belongs -0.331; to “GGUCACGUCUCAAUCAACUCUACUUCCAGGGAAAUCCCUGGUUAUUUCAACAGCUCGCAGUCAAG”, 0.0578; to “GGUCACGUCUCAAUCAACUCAUCCCCCAGGGAAAACCCUGGUAUAUUCAACAGCUCGCAGUCAAG”, -0.176. For “GGUCACGUCUCAAUCAACUCAUCCUCCAGGGAAACCCCUGGCUUUCUCAACAGCUCGCAGUCAAG”, the binding signal (log2 fold change) worked out at 0.066. Consider “GGUCACGUCUCAAUCAACUCCAAAGAGGGGGGGAAAACCCCUUUGCCCUCACUAUCAACAGCUCGCAGUCAAG”, for which the binding signal (log2 fold change) turned out to be 0.207.

With “GGUCACGUCUCAAUCAACUCUACUCCCAGGGAAAACCCUGGCAAUGUCAACAGCUCGCAGUCAAG”, the binding signal (log2 fold change) was -0.02. Regarding “GGUCACGUCUCAAUCAACUCUUCUUCAGGAGUUUGCUCCUGCAAUUUCAACAGCUCGCAGUCAAG”, the binding signal (log2 fold change) is -0.0296. On to “GGUCACGUCUCAAUCAACUCUAUUCCAGGAGUUUCCUCCUGCAAAUUCAACAGCUCGCAGUCAAG”, for which the binding signal (log2 fold change) worked out at 0.037. On to “GGUCACGUCUCAAUCAACUCUUCGUCAGGAGUUUUCUCCUGUUUAUUCAACAGCUCGCAGUCAAG”, for which the binding signal (log2 fold change) was 0.0771. For “GGUCACGUCUCAAUCAACUCACAAGAGGGGGGGAAAACCCCUUUACCCUCCAUCUCAACAGCUCGCAGUCAAG”, the binding signal (log2 fold change) stood at 0.134. “GGUCACGUCUCAAUCAACUCUUCUCCAGGAGUUUUCUCCUGCUUUCUCAACAGCUCGCAGUCAAG”: the binding signal (log2 fold change) is -0.0678. Consider “GGUCACGUCUCAAUCAACUCAAAAGAGGGGGGGAAAACCCCUUUACCCUCCAUCUCAACAGCUCGCAGUCAAG”, for which the binding signal (log2 fold change) came to 0.156.
